According to PubChem BioAssay AID1346428 (National Center for Advancing Translational Sciences (NCATS), 2018):
Among all 48,000 compounds or so, about 1,200 (2.5%) were called active. About 2% were inconclusive and are not listed.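 How the source made its calls: active means activation of at least 60% and not above a set upper limit (about 1 call in 100 departs from these limits); inconclusive means activation of 40% to 60%, or above that upper limit; inactive means activation under 40%.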 The list shows a part of the results.

These compounds were tested against Probable G-protein coupled receptor 32 (Homo sapiens) (UniProt O75388) (assay: qHTS for Agonists of Human Resolvin D1 Receptor DRV1). Conditions: CHO-K1 GPR32 beta-arrestin PathHunter luminescence, 90 min; at 76.9 µM; stronger effect = higher value; zero percent set by DMSO-only wells.
Summary of the method: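 PathHunter beta-arrestin recruitment in CHO-K1 cells stably expressing ProLink-tagged GPR32. Cells were exposed to compound for 90 min at 37 C, then chemiluminescence was read after 1 h detection at ambient temperature; DMSO served as basal control.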
Further: 0% is about no effect.

UniProt O75388, sequence (O75388 whole entry, looked up): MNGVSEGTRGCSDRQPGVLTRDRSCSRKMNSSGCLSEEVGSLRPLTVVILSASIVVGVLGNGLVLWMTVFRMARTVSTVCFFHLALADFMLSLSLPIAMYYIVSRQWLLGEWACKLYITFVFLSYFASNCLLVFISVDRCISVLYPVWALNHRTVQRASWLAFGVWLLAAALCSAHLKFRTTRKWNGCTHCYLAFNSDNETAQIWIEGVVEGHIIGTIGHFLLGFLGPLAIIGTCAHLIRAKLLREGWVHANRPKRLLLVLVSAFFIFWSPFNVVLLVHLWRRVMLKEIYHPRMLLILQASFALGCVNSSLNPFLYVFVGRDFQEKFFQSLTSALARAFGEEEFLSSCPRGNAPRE

activation, active:
CCOc1ccc(C(=O)Nc2ccc3nc(SCc4ccccc4)sc3c2)cc1 62.8%
O=C(Nc1nc2ccc(F)cc2s1)c1nc(S(=O)(=O)Cc2ccccc2)ncc1Cl 90.7%

activation, inactive:
Cc1cccc(Nc2c3c(nc4nncn24)CCC3)c1 -14%
CCCCN1CCc2nc(N3CCN(c4ncccn4)CC3)ncc2C1 -10.9%
Cc1ccc(NC(=O)CSc2nc3c([nH]c4ccccc43)c(=O)n2-c2ccccc2)c(C)c1 -43%
CCN(c1ccccc1)S(=O)(=O)c1ccc(NC(=O)c2cc(=O)c3cc(C)c(C)cc3o2)cc1 -3.46%
Cc1cccc(NS(=O)(=O)c2ccc3c(c2)CCN3C(=O)CCC(=O)O)c1C 21.6%
COc1ccc(S(=O)(=O)Nc2cc3c(cc2NCc2ccccc2)n(C)c(=O)n3C)cc1OC -18.8%
COc1cccc(-n2cc(C(=O)NCc3cccc(Cl)c3)c3ccccc3c2=O)c1 -24.8%
CCOc1ccc(NC(=O)c2ccc(-c3ccccc3)s2)cc1 -4.76%
Cc1nc2c(-c3ccc(F)cc3)c(C)nn2c(C)c1CCC(=O)NCc1ccc(Cl)cc1 18%
COc1ccccc1N1CCN(C(=O)Cn2c(=O)nc(-c3ccccc3)c3cc(Cl)ccc32)CC1 -6.85%
CCSc1ncc(Cl)c(C(=O)Nc2c(C(=O)Nc3ccc(Cl)cc3)oc3ccccc23)n1 -12.2%
O=C(c1ccc2c(c1)N(Cc1ccccc1)C(=O)c1ccccc1S2(=O)=O)N1CCN(c2ccccn2)CC1 -18.2%
CCOc1ccc(OCC)c(NC(=O)CCc2c(C)nc3c(c2C)c(=O)n(C)c(=O)n3C)c1 -1.15%
CCOc1ccccc1CNC(=O)c1cc(-c2ccc(OC)cc2)nc2ccc(C(C)C)cc12 -13%
COc1cc(C2c3c(oc4ccccc4c3=O)C(=O)N2c2nnc(C(C)C)s2)cc(OC)c1OC (stereo not drawn) -6.39%
CCOC(=O)c1cccc(NS(=O)(=O)c2cn(C)c(C)n2)c1 9.14%
COc1ccc(CNC(=O)c2ccc3c(c2)nc2n3CCCCC2)c(OC)c1 -15.3%
COC(=O)c1ccccc1NC(=O)Cn1c(=O)n(-c2ccc(Cl)cc2)c(=O)c2c(C)c(C)sc21 -2.47%
COc1ccc(/C=C/c2noc(-c3ccccc3O)n2)cc1OC -5.54%
Cc1ccc(Cn2ccn(Cc3ccccc3C)c(=O)c2=O)cc1 -2.44%
COc1ccc(C(=O)N2CCc3cc(OC)c(OC)cc3C2COc2ccc3c(C)cc(=O)oc3c2)c(OC)c1 (stereo not drawn) 4.01%
COc1cc(NS(=O)(=O)c2ccc3c(c2)CCCN3C(C)=O)cc(OC)c1OC 1.6%
Cc1cc(C)cc(-n2nnc(-c3nc(-c4ccccc4F)no3)c2C)c1 -4.53%
Cc1ccc(CN2CCN(CC(=O)NCc3ccccc3Cl)C2=O)cc1 9.7%
Cc1cc(C)n(-c2nc3ccccc3nc2Nc2cc(C(=O)O)ccc2C)n1 5.39%
COc1ccc(S(=O)(=O)N(CC(=O)NCc2ccc(C)cc2)c2ccc(Cl)cc2)cc1 -5.51%
CCOc1ccccc1NC(=O)CN1C(=O)C2(SCC(=O)N2c2cccc(F)c2)c2ccccc21 (stereo not drawn) -18%
O=C(Nc1ccc(F)c(Cl)c1)c1cc(S(=O)(=O)N2CCCc3ccccc32)ccc1F -23.8%
Cc1c(Cl)cccc1NC(=O)CCn1nc(C)c2c(C)n(-c3ccccc3)nc2c1=O -4.59%
Cc1ccc(NC(=O)C(=O)NCC(c2cccnc2)N2CCc3ccccc32)cc1Cl (stereo not drawn) -12.7%
COc1ccc(NC(=O)c2sc3nc(C)c(C(=O)Nc4ccc(Cl)cc4)c(-c4ccc(Br)cc4)c3c2N)cc1 21%
CCOc1ccc(C(=O)N2CCCCC2CCN2CCOCC2)cc1 (stereo not drawn) -11.9%
COc1ccc(NC(=O)c2nc3nc(C)cc(C(F)F)n3n2)c(C)c1 24.1%
COc1ccccc1Nc1nc2ccc(Cl)cc2nc1-n1nc(C)cc1C -19.9%
COCCNC(=O)C(=O)NCC(c1cccnc1)N1CCN(c2ccccc2F)CC1 (stereo not drawn) 0.535%
Cc1ccc2oc3c(c(=O)c2c1)C(c1ccc(F)cc1)N(c1nc(C)c(C)s1)C3=O (stereo not drawn) -9.29%
COc1ccc(C2CC(=O)Nc3c2c(=O)[nH]c2nc4ccccc4n32)cc1OC (stereo not drawn) -7.18%
Cc1ccc(C)c(NS(=O)(=O)c2cc3c(cc2Cl)NC(=O)CO3)c1 -2.84%
CCOC(=O)c1cccc(NC(=O)C2CCN(S(=O)(=O)c3cn(C)cn3)CC2)c1 -15.9%
CCOC(=O)c1ccc(NC(=O)CC2C(=O)N(c3ccc(F)cc3)C(=O)N2Cc2ccc3c(c2)OCO3)cc1 (stereo not drawn) -3.74%
COCCCNc1ncnc2c1cnn2-c1ccc(F)cc1 6.13%
CC(C)(C)OC(=O)N1CCC(c2c(C(=O)NCCN3CCC(Cc4ccccc4)CC3)cnn2-c2ccccc2)CC1 -7.04%
CCc1ccc(NC(=O)N2CC(C)Oc3ccc(C)cc32)cc1 (stereo not drawn) -40.9%
COc1cc2ccccc2cc1C(=O)Nc1ccc2oc(-c3cccc(Cl)c3Cl)nc2c1 0.403%
CCCn1c(NCc2ccccc2C)nc2ccccc21 30.9%
COc1ccc(-n2cc(-c3ccccc3)nc2SCC(=O)Nc2ccccc2)cc1Cl -17.7%
CCc1ccc(S(=O)(=O)c2nnn3c2nc(N2CCCC2)c2sccc23)cc1 -3.27%
COc1ccc(-n2nc3c(N4CCCC(C(=O)NCCc5ccc(C)cc5)C4)nnc(C)c3c2C)cc1 (stereo not drawn) 10%
CCOC(=O)c1ccc(NC(=O)Cn2cnc(S(=O)(=O)N3CCCC3)c2)cc1 9.47%
COc1ccc(-c2cc(C(F)(F)F)n3nc(C(=O)Nc4cccc(Cl)c4C)cc3n2)cc1 17.6%
CN1C(=O)Cc2cc(S(=O)(=O)CCC(=O)N3CCN(c4ccccc4F)CC3)ccc21 -23.2%
Cc1nn(-c2ccc(N3CCCCC3)nn2)c(C)c1CCC(=O)NCc1ccccc1F -13.4%
Cc1ccccc1C1C=C(c2ccc(Cl)cc2)Nc2nnnn21 (stereo not drawn) -1.52%
COc1ccc(NC(=O)COCc2cc(-c3cccs3)on2)cc1 -16.3%
CCCCOc1ccc(CNC(=O)CCCN2C(=O)CSc3c2c(C)nn3-c2ccccc2)cc1 3.24%
CCOC(=O)c1ccccc1NC(=O)c1sc2nc3n(c(=O)c2c1C)CCCC3 -5.42%
CCc1ccc(CNC(=O)CN2C(=O)c3cccnc3Oc3ccc(C)cc32)cc1 -11.1%
Cc1ccc2c(=O)cc(C(=O)Nc3ccc(S(=O)(=O)N4CCCCCC4)cc3)oc2c1C -0.294%
CSc1ncc(Cl)c(C(=O)N(Cc2ccc(N(C)C)cc2)Cc2ccco2)n1 5.76%
Cc1c(Cl)cccc1NC(=O)C(C)n1nnc2sc3c(c2c1=O)CCCC3 (stereo not drawn) 5.78%
Cc1c(C)n(C)c2ccc(C(=O)N3CCN(c4ccccc4)CC3)cc12 -29.2%
Cc1ccc(CNC(=O)Cn2cc(C(=O)c3ccc(F)cc3)c(=O)c3ccc(C)nc32)cc1 3.59%
Cc1cccc(C2CC(=O)Oc3c2c(=O)n(C)c2ccccc32)c1 (stereo not drawn) -0.527%
CCc1ccc(Cc2cnc(NC(=O)c3ccc4c(c3)CC(c3ccccc3)OC4=O)s2)cc1 (stereo not drawn) 3.81%
CCOC(=O)C1CCN(C(=O)C2CCN(C3=NS(=O)(=O)C(c4ccc(C)c(C)c4)=C3C)CC2)CC1 2.03%
Cc1ccc(-n2c(=O)c3oc4ccccc4c3n(Cc3ccccc3F)c2=O)cc1C -9.63%
O=C(Cn1c(=O)n(-c2ccc(F)c(Cl)c2)c(=O)c2sc3ccccc3c21)NC1CCCC1 -6.6%
CC(C)CCNC(=O)C1CCC(Cn2c(=O)c3sccc3n(CC(=O)NC(C)C)c2=O)CC1 (stereo not drawn) -7.71%
CCC(C)NC(=O)C(=O)Nc1c2c(nn1-c1ccccc1)CS(=O)(=O)C2 (stereo not drawn) -5.5%
COc1ccc(CNC(=O)c2cc3c(s2)-c2ccccc2OC3)cc1 -2.66%
CC1CN(C(=O)CCC(=O)NCc2ccc(F)cc2)c2cc(Cl)ccc2O1 (stereo not drawn) -22%
O=C(c1ccc2c(c1)N(Cc1ccc(Cl)cc1)C(=O)c1ccccc1S2(=O)=O)N1CCCCC1 -5.33%
CCOC(=O)c1c(NC(C)=O)c2c3c(sc2n1Cc1nc(-c2ccccc2C)oc1C)CCCC3 -1.73%
COc1ccc(NC(=O)CSc2nc3c(oc4ccccc43)c(=O)n2-c2ccc(C)c(C)c2)cc1 -15.2%
CCOc1ccc(CCNC(=O)C2COc3ccccc3C2)cc1OCC (stereo not drawn) -20%
O=C(CN1C(=O)CCSc2ccccc21)Nc1ccccc1F -1.06%
Cc1ccc(NC(=O)C(=O)NCC(c2cccnc2)N2CCN(C)CC2)cc1F (stereo not drawn) 0.636%
COC(=O)C(CCSC)NC(=O)c1c(C)oc2ncn(CC(C)C)c(=O)c12 (stereo not drawn) -43.8%
Cc1c(Cl)cccc1NC(=O)CSc1ncccc1C(=O)Oc1ccccc1Cl -9.42%
CCOC(=O)c1ccc(NC(=O)c2ccc3c(c2)NC(=O)c2ccccc2S3)cc1 9.4%
COc1cccc(C(=O)Nc2ccc(-c3cn4cccnc4n3)cc2)c1OC 21.2%
